# Data published in PubChem BioAssay (Tox21).
# Several values for one entry are separate records, joined by “and”; a condition that tells them apart may be missing. Equal entries are not always repeated. This list was built around the results that the source calls inconclusive (neither active nor inactive); the mix of calls is not that of the screen. Potencies beside an inconclusive call are fits to weak or partial responses and may not hold up. Activity calls are given as the source filed them. Calls follow the shape of the dose curve; as a rule, active = well fitted cell-killing curve with a large enough effect in the repeat runs; inconclusive = weak or mixed curves, or effect the other way; inactive = flat fitted curve, though single readings scatter.
# Test: cAMP Responsive Elements (CRE) small molecule antagonists, cell-based qHTS assay: qHTS cell viability counter screen (AID 2060913); also: nearly all actives have a fitted effect of over 40% in size
# Conditions: CRE-bla HEK293T viability, CellTiter-Glo luminescence, 5 h; series mostly up to 92.4 µM
# Source text: U.S. Tox21 Program National Center for Advancing Translational Sciences [NCATS] Division of Preclinical Innovation [DPI] U.S. Environmental Protection Agency [EPA] National Institutes of Environmental Health Sciences [NIEHS] National Toxicology Program [NTP] U.S. Food and Drug Administration [FDA] Tox21 Assay Overview: CREB (cyclic-AMP Responsive Element Binding Protein) is a cellular transcription factor. It binds to certain DNA sequences called cAMP Responsive Elements (CRE) and regulates the transcription of the genes. […] This cell line can be used to find agonists/antagonists of the cyclic AMP signaling pathway. The activation of the report gene under culture conditions can be detected by fluorescence intensity. This cell line has been used to screen the Tox21 10K compound library to identify agonists that induce oxidative stress. The cytotoxicity of the Tox21 compound library against the CRE-bla cell line was tested in parallel by measuring the cell viability using CellTiter-Glo assay (Promega, Madison, WI) in the same wells.
# Tox21 Assay Protocol Summary: CRE-bla Hek 293T cells were suspended in assay medium (DMEM containing 10% dialyzed FBS, 0.1 mM NEAA, 1 mM sodium pyruvate and 25 mM HEPES) and dispensed at 2,000 cells/4 uL /well into 1536-well black wall/clear bottom plates using a Multidrop Combi (ThermoFisher Scientific, Waltham, MA) dispenser. After the assay plates were incubated at 37 C/5% CO2 for 18 hrs, 23 nL of compounds dissolved in DMSO, positive controls or DMSO only was transferred to the assay plate by a pintool workstation (Kalypsys, San Diego, CA), followed by addition of 1 uL of 1.25uM NKH477 (0.25 uM as final concentration) in assay medium using a Flying Reagent Dispenser (Aurora Discovery, San Diego, CA). The plates were incubated at 37 C and 5% CO2 for 3 hrs. Then 1 uL of LiveBLAzer B/G FRET substrate (Invitrogen, Carlsbad, CA) was added to each well using Bioraptr Flying Reagent Dispenser (FRD, Aurora Discovery, San Diego, CA). The plates were incubated at room temperature for 2 h, then fluorescence intensities were measured using an Envision plate reader (PerkinElmer, Shelton, CT) at Excitation 405nm, Emission 460nm and 530nm. The % activity was determined from the ratio of 460nm/530nm. For cell viability readout that measures cytotoxicity, 4 uL /well of CellTiter-Glo reagent was added into the assay plates using Bioraptr FRD. After 30 min incubation at room temperature, the luminescence intensity in the assay plates was measured using a ViewLux (PerkinElmer, Shelton, CT) plate reader.
# Potency is read from the fitted curve at half-maximal effect; tags tell the direction and shape of the fitted curve.
row,Structure (SMILES),Potency
1,CC(C)CC(O)CC(C)C,"inconclusive: 77 µM [cytotoxic, partial curve, poor fit]"
2,Oc1ccc(Cl)cc1C1CCCC1,"inconclusive: 48.6 µM [cytotoxic, partial curve, poor fit]"
3,Clc1ccc(C(Cn2ccnc2)OCc2c(Cl)cccc2Cl)c(Cl)c1 (stereo not given),"inconclusive: 29.8 µM [cytotoxic, partial curve, poor fit]"
4,CCCCCCCCCCCC(=O)N(C)CC(=O)O,"inconclusive: 74.5 µM [cytotoxic, partial curve, poor fit]"
5,C=CC(=O)OCCOCCOCC,inactive
6,Cc1c(C2(c3cc(Br)c(O)c(Br)c3C)OS(=O)(=O)c3ccccc32)cc(Br)c(O)c1Br,"inconclusive: 42 µM [cytotoxic, partial curve, poor fit]"
7,O=S(=O)(O)c1ccc(N=Nc2c(O)ccc3ccccc23)cc1,"inconclusive: 54.5 µM [cytotoxic, partial curve, poor fit]"
8,CCOC(=O)/C=C/c1ccccc1,inactive
9,CCc1cc(SCc2sc(-c3ccc(C(F)(F)F)cc3)nc2CN2CCN(c3ccc(OC)cc3)CC2)ccc1OCC(=O)O,active: 54.5 µM
10,CCN(CC)CCOc1ccc(C(O)(Cc2ccc(Cl)cc2)c2ccc(C)cc2)cc1 (stereo not given),active: 26.6 µM
11,O=C(O)Cc1ccc(CCNS(=O)(=O)c2ccc(Cl)cc2)cc1,"inconclusive: 0.0024 µM [rising, full curve, poor fit]"
12,CC(C)(C)NC(=O)[C@@H]1C[C@@H]2CCCC[C@@H]2CN1C[C@@H](O)[C@H](Cc1ccccc1)NC(=O)[C@H](CC(N)=O)NC(=O)c1ccc2ccccc2n1,active: 61.9 µM
13,O=[N+]([O-])c1cc(C2CCCCC2)c(O)c([N+](=O)[O-])c1,"inconclusive: 4.31 µM [cytotoxic, partial curve]"
14,CC(C)(C)NC[C@H](O)COc1nsnc1N1CCOCC1,inactive
15,CC(C)(C)CC(C)(C)c1ccccc1O,active: 61.4 µM
16,CCOc1ccc([N+](=O)[O-])cc1,"inconclusive: 39.1 µM [cytotoxic, partial curve]"
17,COC(C)=O,inactive
18,CCCCCCCCS(=O)C(C)Cc1ccc2c(c1)OCO2 (stereo not given),"inconclusive: 69.9 µM [cytotoxic, single point]"
19,CC(C)=CC=O,inactive
20,CCCN(CCC)CCc1cccc2c1CC(=O)N2,inactive

row,Structure (SMILES),Potency
1,Oc1ccc(-c2ccccc2)c(Cl)c1,"inconclusive: 54.5 µM [cytotoxic, partial curve, poor fit]"
2,CCCCCCCCCCCC(=O)NCCCN(C)C,active: 61.1 µM
3,CCCOc1sc(C(=O)N2CCC(c3cc(CN)ccc3F)CC2)c(C)c1Br,active: 56 µM
4,Cc1nn(C)c(Oc2ccccc2)c1/C=N/OCc1ccc(C(=O)OC(C)(C)C)cc1,"inconclusive: 0.0344 µM [cytotoxic, full curve, poor fit]"
5,O=C(c1ccccc1O)c1ccccc1O,inactive
6,CN(C[C@@H](CC[N+]12CCC(C3CCCCC3)(CC1)CC2)c1ccc(Cl)c(Cl)c1)C(=O)c1cc(C(F)(F)F)cc(C(F)(F)F)c1,active: 54.5 µM
7,COC(=O)[C@@H]1CC2=CC(=O)CC[C@]2(C)[C@@]23O[C@@H]2C[C@@]2(C)[C@@H](CC[C@@]24CCC(=O)O4)[C@H]13,inactive
8,O=C1NCCN1CCN1CCC(c2cn(-c3ccc(F)cc3)c3ccc(Cl)cc23)CC1,active: 10.6 µM
9,CN(C)CCOc1ccc(/C(=C(/CCCl)c2ccccc2)c2ccccc2)cc1,"inconclusive: 57.2 µM [cytotoxic, single point]"
10,NC(N)=NC(N)=NCCc1ccccc1,"inconclusive: 33.5 µM [cytotoxic, partial curve, poor fit]"
11,CCCCCCCCCCCCCC[P+](CCCC)(CCCC)CCCC,active: 60.8 µM and active: 28.5 µM
12,NC/C=C/C(=O)O,inactive
13,CCOc1cc(NC(C)=O)ccc1C(=O)OC,inactive
14,CC(=O)OC(C)OC(C)=O,"inconclusive: 12.6 µM [cytotoxic, partial curve, poor fit]"
15,CC1(C)OC[C@@H](COC(=O)CCc2ccc(OC[C@@H](O)CNCCNC(=O)N3CCOCC3)cc2)O1,"inconclusive: 0.0119 µM [rising, full curve, poor fit]"
16,NC(=O)NNc1ccccc1,inactive
17,CC1(C)Oc2ccc(C#N)cc2[C@@H](N2CCCC2=O)[C@@H]1O,"inconclusive: 18.8 µM [cytotoxic, single point]"
18,O=C(Nc1ccc(Cl)cc1)Nc1ccc(Cl)c(Cl)c1,"inconclusive: 48.6 µM [cytotoxic, partial curve]"
19,CCCCCCCCCCCCCCOS(=O)(=O)O,"inconclusive: 61.1 µM [cytotoxic, partial curve, poor fit]"
20,C[C@H]1O[C@@H](O[C@H]2CC[C@@]3(C)[C@H](CC[C@@H]4[C@@H]3C[C@@H](O)[C@]3(C)[C@@H](C5=CC(=O)OC5)CC[C@]43O)C2)C[C@H](O)[C@@H]1O[C@H]1C[C@H](O)[C@H](O[C@H]2C[C@H](O)[C@H](O[C@@H]3O[C@H](CO)[C@@H](O)[C@H](O)[C@H]3O)[C@@H](C)O2)[C@@H](C)O1,"inconclusive: 0.168 µM [cytotoxic, full curve]"
